Experiment [1] has as its target CHC17 clathrin (canonical clathrin heavy chain isoform CHC17) (human (endogenous in HeLa-GLUT4 cells and hSkMC-AB1190 myotubes)) (UniProt Q00610). Put plainly: co-IP; endogenous CHC22 (Proteintech antibody) or CHC17 (X22 antibody) immunoprecipitated from precleared postnuclear supernatant of HeLa-GLUT4 cells, overnight 4°C, protein G sepharose; lysis buffer 150 mM NaCl, 20 mM Hepes, 1 mM EDTA, 1 mM EGTA, 10% glycerol, 0.25% NP-40; immunoblot. (In general: In western blotting, separated proteins are transferred to a membrane and probed.)

By UniProt entry, the sequences of proteins in these tests, tags left out. Residues count along the entry.
UniProt Q00610: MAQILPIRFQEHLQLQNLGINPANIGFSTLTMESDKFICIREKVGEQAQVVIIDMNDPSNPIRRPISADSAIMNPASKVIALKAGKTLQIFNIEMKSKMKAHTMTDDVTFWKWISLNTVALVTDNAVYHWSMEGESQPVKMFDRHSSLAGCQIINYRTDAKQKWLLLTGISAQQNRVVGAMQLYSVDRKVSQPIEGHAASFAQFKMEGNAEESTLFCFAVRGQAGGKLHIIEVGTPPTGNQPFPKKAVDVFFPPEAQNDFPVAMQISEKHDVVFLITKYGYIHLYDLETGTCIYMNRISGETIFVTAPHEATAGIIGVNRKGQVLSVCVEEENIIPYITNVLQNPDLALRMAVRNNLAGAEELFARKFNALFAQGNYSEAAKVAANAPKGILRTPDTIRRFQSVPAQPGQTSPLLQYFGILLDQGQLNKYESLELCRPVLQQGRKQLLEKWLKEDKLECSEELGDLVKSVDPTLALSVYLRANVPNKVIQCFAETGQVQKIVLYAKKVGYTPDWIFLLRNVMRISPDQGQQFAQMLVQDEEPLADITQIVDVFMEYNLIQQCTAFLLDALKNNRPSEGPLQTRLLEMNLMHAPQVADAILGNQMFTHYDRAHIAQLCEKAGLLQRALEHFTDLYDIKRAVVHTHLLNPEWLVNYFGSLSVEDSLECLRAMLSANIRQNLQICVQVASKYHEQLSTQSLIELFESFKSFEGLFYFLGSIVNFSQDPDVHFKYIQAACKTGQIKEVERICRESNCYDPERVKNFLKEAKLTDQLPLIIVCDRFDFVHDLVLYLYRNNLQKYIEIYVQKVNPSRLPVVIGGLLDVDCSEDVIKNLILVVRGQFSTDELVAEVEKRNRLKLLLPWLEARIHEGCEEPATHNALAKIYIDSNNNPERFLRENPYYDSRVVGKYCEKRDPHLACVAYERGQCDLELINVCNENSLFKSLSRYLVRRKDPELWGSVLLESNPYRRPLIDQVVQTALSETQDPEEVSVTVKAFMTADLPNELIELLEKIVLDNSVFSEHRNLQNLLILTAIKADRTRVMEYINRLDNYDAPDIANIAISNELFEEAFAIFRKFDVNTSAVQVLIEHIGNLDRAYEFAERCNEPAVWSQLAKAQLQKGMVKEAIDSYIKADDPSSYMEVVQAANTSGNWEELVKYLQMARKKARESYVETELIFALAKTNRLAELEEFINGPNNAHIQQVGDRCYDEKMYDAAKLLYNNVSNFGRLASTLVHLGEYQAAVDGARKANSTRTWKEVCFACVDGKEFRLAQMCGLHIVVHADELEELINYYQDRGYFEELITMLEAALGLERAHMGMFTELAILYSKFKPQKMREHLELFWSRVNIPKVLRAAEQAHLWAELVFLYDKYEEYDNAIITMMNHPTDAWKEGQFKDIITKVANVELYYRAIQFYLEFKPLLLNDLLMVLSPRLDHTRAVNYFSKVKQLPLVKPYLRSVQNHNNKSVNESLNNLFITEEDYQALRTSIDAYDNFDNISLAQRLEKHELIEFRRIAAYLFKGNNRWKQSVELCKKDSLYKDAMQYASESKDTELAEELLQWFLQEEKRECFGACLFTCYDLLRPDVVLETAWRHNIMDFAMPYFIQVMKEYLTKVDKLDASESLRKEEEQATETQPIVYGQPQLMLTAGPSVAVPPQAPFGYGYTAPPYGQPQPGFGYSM
UniProt P53675: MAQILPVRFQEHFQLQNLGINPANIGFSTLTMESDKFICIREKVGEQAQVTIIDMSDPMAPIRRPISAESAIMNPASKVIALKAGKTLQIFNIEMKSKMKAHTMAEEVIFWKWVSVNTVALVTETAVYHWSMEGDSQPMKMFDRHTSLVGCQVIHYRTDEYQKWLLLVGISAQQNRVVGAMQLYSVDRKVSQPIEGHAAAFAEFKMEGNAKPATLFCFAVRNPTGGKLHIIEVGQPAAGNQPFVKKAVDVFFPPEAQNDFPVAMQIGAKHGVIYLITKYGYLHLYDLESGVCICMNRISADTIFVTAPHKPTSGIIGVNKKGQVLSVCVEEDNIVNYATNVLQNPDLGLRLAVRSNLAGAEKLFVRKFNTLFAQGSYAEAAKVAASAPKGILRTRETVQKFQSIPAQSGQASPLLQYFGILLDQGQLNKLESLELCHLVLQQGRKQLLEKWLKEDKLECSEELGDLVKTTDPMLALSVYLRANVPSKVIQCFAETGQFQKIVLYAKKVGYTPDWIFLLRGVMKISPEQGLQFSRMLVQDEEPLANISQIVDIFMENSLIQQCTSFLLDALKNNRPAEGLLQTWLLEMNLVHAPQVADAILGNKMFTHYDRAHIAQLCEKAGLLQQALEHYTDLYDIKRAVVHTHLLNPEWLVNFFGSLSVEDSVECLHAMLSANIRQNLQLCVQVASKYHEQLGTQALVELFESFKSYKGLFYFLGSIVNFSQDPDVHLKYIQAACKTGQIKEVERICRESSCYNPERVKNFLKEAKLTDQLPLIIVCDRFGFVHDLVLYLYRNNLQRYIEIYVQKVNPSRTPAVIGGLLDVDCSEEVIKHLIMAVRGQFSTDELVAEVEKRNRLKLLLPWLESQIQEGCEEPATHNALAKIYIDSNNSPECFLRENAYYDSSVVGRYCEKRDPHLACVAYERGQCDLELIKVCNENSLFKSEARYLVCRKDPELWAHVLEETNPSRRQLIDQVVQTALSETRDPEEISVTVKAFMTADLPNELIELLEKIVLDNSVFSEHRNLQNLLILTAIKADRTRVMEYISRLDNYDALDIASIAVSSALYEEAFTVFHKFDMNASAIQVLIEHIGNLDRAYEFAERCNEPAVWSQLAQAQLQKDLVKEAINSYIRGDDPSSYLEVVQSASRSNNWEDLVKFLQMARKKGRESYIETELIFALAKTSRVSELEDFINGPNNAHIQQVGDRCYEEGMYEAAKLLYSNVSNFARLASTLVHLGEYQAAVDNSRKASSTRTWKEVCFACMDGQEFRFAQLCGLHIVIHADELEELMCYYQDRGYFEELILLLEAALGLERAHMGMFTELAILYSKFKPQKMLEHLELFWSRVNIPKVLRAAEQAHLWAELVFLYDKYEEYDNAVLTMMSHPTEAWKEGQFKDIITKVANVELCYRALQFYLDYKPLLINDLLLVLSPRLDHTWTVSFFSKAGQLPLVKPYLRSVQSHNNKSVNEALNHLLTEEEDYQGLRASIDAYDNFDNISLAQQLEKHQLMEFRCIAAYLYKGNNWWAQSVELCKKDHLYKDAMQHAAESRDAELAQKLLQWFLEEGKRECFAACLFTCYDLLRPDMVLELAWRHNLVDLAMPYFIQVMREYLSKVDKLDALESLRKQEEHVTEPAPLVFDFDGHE
UniProt Q99523, residues 78-831: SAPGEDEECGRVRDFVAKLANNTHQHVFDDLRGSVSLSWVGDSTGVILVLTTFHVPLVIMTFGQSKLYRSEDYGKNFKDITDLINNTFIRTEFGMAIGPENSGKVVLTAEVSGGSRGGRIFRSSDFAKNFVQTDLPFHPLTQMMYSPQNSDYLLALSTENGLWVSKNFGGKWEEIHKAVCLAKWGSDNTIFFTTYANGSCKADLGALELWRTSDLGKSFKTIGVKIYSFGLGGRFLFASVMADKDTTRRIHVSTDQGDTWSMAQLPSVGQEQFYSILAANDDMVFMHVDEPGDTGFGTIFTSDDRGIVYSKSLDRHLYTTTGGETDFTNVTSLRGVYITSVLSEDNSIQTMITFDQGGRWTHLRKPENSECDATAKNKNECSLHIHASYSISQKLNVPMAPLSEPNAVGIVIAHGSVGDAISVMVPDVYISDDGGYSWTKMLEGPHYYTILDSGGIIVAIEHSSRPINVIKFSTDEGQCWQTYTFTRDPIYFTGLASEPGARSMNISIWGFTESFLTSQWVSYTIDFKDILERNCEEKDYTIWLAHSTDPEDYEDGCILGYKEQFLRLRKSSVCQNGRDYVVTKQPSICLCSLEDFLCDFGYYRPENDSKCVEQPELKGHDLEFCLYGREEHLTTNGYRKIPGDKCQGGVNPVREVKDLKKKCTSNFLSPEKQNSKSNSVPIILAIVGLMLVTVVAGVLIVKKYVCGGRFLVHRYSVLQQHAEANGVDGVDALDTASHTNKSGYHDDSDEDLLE

Experiment [2] concerns the target CHC22 clathrin (clathrin heavy chain isoform CHC22) (human (endogenous in HeLa-GLUT4 cells and hSkMC-AB1190 myotubes)) (UniProt P53675). Described as above.
Experiment [3] concerns the target CHC17 clathrin (canonical clathrin heavy chain isoform CHC17) (human (endogenous in HeLa-GLUT4 cells and hSkMC-AB1190 myotubes)) (UniProt Q00610). In words: co-IP; endogenous CHC22 (Proteintech antibody) or CHC17 (X22 antibody) immunoprecipitated from precleared postnuclear supernatant of human skeletal muscle myotubes (hSkMC-AB1190), overnight 4°C, protein G sepharose; lysis buffer 150 mM NaCl, 20 mM Hepes, 1 mM EDTA, 1 mM EGTA, 10% glycerol, 0.25% NP-40; immunoblot.

In experiment [4] the target is CHC22 clathrin (clathrin heavy chain isoform CHC22) (human (endogenous in HeLa-GLUT4 cells and hSkMC-AB1190 myotubes)) (UniProt P53675). The description is as above.

No constants are given. Whether binding was seen depends on the method and setting. In cells and extracts the contact can be indirect. Some entries that bind do so weakly or less than the wild type. For part of these data: Sequences can lack the tags named with a protein.

For sortilin (from UniProt Q99523 78-831), the binding result was “no binding” in experiment [1], “binds” in experiment [2], “no binding” in experiment [3] and “binds” in experiment [4].

B1: HA-GLUT4-GFP (human GLUT4 with an HA tag in the first exofacial loop and a GFP tag at the intracellular carboxyl terminus) (protein, UniProt P14672 1-509)
chain: MPSGFQQIGSEDGEPPQQRVTGTLVLAVFSAVLGSLQFGYNIGVINAPQKVIEQSYNETWLGRQGPEGPSSIPPGTLTTLWALSVAIFSVGGMISSFLIGIISQWLGRKRAMLVNNVLAVLGGSLMGLANAAASYEMLILGRFLIGAYSGLTSGLVPMYVGEIAPTHLRGALGTLNQLAIVIGILIAQVLGLESLLGTASLWPLLLGLTVLPALLQLVLLPFCPESPRYLYIIQNLEGPARKSLKRLTGWADVSGVLAELKDEKRKLERERPLSLLQLLGSRTHRQPLIIAVVLQLSQQLSGINAVFYYSTSIFETAGVGQPAYATIGAGVVNTVFTLVSVLLVERAGRRTLHLLGLAGMCGCAILMTVALLLLERVPAMSYVSIVAIFGFVAFFEIGPGPIPWFIVAELFSQGPRPAAMAVAGFSNWTSNFIIGMGFQYVAEAMGPYVFLLFAVLLLGFFIFTFLRVPETRGRTFDQISAAFHRTPSLLEQEVKPSTELEYLGPDEND
As to B1, the binding entry in experiment [1] and in experiment [2] was “binds” throughout.

B2: GLUT4 (muscle cell GLUT4 of human skeletal muscle myotubes) (protein, UniProt P14672 1-509)
chain: B1 chain
For B2, the binding entry in experiment [3] and in experiment [4] was “binds” each time.

B3: p115 (ERGIC vesicle tether p115) (protein, UniProt O60763 1-962)
chain: MNFLRGVMGGQSAGPQHTEAETIQKLCDRVASSTLLDDRRNAVRALKSLSKKYRLEVGIQAMEHLIHVLQTDRSDSEIIGYALDTLYNIISNEEEEEVEENSTRQSEDLGSQFTEIFIKQQENVTLLLSLLEEFDFHVRWPGVKLLTSLLKQLGPQVQQIILVSPMGVSRLMDLLADSREVIRNDGVLLLQALTRSNGAIQKIVAFENAFERLLDIISEEGNSDGGIVVEDCLILLQNLLKNNNSNQNFFKEGSYIQRMKPWFEVGDENSGWSAQKVTNLHLMLQLVRVLVSPTNPPGATSSCQKAMFQCGLLQQLCTILMATGVPADILTETINTVSEVIRGCQVNQDYFASVNAPSNPPRPAIVVLLMSMVNERQPFVLRCAVLYCFQCFLYKNQKGQGEIVSTLLPSTIDATGNSVSAGQLLCGGLFSTDSLSNWCAAVALAHALQENATQKEQLLRVQLATSIGNPPVSLLQQCTNILSQGSKIQTRVGLLMLLCTWLSNCPIAVTHFLHNSANVPFLTGQIAENLGEEEQLVQGLCALLLGISIYFNDNSLESYMKEKLKQLIEKRIGKENFIEKLGFISKHELYSRASQKPQPNFPSPEYMIFDHEFTKLVKELEGVITKAIYKSSEEDKKEEEVKKTLEQHDNIVTHYKNMIREQDLQLEELRQQVSTLKCQNEQLQTAVTQQVSQIQQHKDQYNLLKIQLGKDNQHQGSYSEGAQMNGIQPEEIGRLREEIEELKRNQELLQSQLTEKDSMIENMKSSQTSGTNEQSSAIVSARDSEQVAELKQELATLKSQLNSQSVEITKLQTEKQELLQKTEAFAKSVEVQGETETIIATKTTDVEGRLSALLQETKELKNEIKALSEERTAIKEQLDSSNSTIAILQTEKDKLELEITDSKKEQDDLLVLLADQDQKILSLKNKLKDLGHPVEEEDELESGDQEDEDDESEDPGKDLDHI
As for B3, the binding entry in experiment [1] is listed as “no binding”; in experiment [2], “binds”; in experiment [3], “no binding”; in experiment [4] it was “binds”.
